B1: ESPN 717-732 mut B1AK53.S719R (peptide)
chain: NGRLVPVPPTTPAPGV
B2: KMT2D 725-740 wt (peptide)
chain: LLPLPEEPQLAPRSEG
B3: FOXL2 252-267 mut P58012.Y258N (peptide)
chain: AASYGPNTRVQSMALP
B4: KMT2D 2297-2312 wt (peptide)
chain: PSYGPPNLGFVDSPSS
B5: MUTYH 315-330 mut Q9UIF7.S321L (peptide)
chain: LASGSLLGSPDVEEAA
B6: ERCC1 52-67 mut P07992.S52L (peptide)
chain: LAQAAPQTYAEYAISQ
B7: POMT2 721-736 mut Q9UKY4.G726E (peptide)
chain: HPLAYEMVGPLAQDPQ
B8: LZTR1 633-648 mut Q8N653.P635L (peptide)
chain: QQLPPRTPLDQPVDIG
B9: SP110 120-135 wt (peptide)
chain: LLEAPTGLAEGSSLHT
B10: FOXL2 252-267 wt (peptide)
chain: AASYGPYTRVQSMALP
B11: SP110 120-135 mut Q9HB58.G126S (peptide)
chain: LLEAPTSLAEGSSLHT
B12: PIEZO2 2345-2360 wt (peptide)
chain: TELRAVMDWVWTDTTL
B13: TTN 14105-14120 mut Q8WZ42.V14109I (peptide)
chain: TDNPIEARSKYDVPGP
B14: AR 280-295 wt (peptide)
chain: RPTPAAPLAEAKGSLL
B15: ZIC2 208-223 mut O95409.Q213E (peptide)
chain: AQLHNEYGPMNMNMGM
B16: ERCC1 52-67 wt (peptide)
chain: SAQAAPQTYAEYAISQ
B17: CFTR 426-441 wt (peptide)
chain: DSLFFSNFSLLGTPVL
B18: IRF6 258-273 mut O14896.Q273R (peptide)
chain: PMPDQEELFGPVSLER
B19: TSEN34 48-63 mut Q9BSV6.R58W (peptide)
chain: LPLLLMPEEAWLLAEI
B20: FOXL2 248-263 wt (peptide)
chain: LAGPAASYGPYTRVQS
B21: PRKN 341-356 wt (peptide)
chain: LLPEPDQRKVTAEGGN
B22: TTN 14997-15012 mut Q8WZ42.S15012L (peptide)
chain: EPSDPVLAREKLYPPL
B23: TSEN34 48-63 wt (peptide)
chain: LPLLLMPEEARLLAEI
B24: FOXRED1 136-151 mut Q96CU9.R136W (peptide)
chain: WNINEYLAVVDAPPLD
B25: AR 276-291 wt (peptide)
chain: PPAVRPTPAAPLAEAK
B26: SLC22A5 5-20 mut O76082.F17L (peptide)
chain: DEVTAFLGEWGPLQRL
B27: ESPN 713-728 mut B1AK53.S719R (peptide)
chain: QPLLNGRLVPVPPTTP
B28: TTN 14109-14124 mut Q8WZ42.V14109I (peptide)
chain: IEARSKYDVPGPPLNV
B29: SMN1 255-270 mut Q16637.S262G (peptide)
chain: DDADALGGMLISWYMS
B30: SLC22A5 5-20 mut O76082.R19H (peptide)
chain: DEVTAFLGEWGPFQHL
B31: CARD10 339-354 wt (peptide)
chain: LHAVQGELQWAEELRD
B32: SLC22A5 4-19 wt (peptide)
chain: YDEVTAFLGEWGPFQR
B33: ZIC2 212-227 mut O95409.Q213E (peptide)
chain: NEYGPMNMNMGMNMAA
B34: IRF6 258-273 wt (peptide)
chain: PMPDQEELFGPVSLEQ
B35: CNGB1 208-223 wt (peptide)
chain: QARETPSLPTPIPLQP
B36: PRKN 341-356 mut O60260.T351P (peptide)
chain: LLPEPDQRKVPAEGGN
B37: ZIC2 212-227 wt (peptide)
chain: NQYGPMNMNMGMNMAA
B38: COX15 205-220 mut Q7KZN9.R217W (peptide)
chain: GLEEKSDSHDIPWVSQ
B39: POMT2 724-739 mut Q9UKY4.G726E (peptide)
chain: AYEMVGPLAQDPQSPM
B40: SLC16A2 432-447 wt (peptide)
chain: APIAFELVGPMQASQA
B41: SLC22A5 5-20 wt (peptide)
chain: DEVTAFLGEWGPFQRL
B42: TTN 14997-15012 mut Q8WZ42.S14999T (peptide)
chain: EPTDPVLAREKLYPPS
B43: SGCA 347-362 wt (peptide)
chain: MAASREVPRPLSTLPM
B44: COX15 208-223 mut Q7KZN9.R217W (peptide)
chain: EKSDSHDIPWVSQYRL
B45: CLCN1 408-423 mut P35523.Q412P (peptide)
chain: PGMGPFMAGELMPREA
B46: TTN 14105-14120 wt (peptide)
chain: TDNPVEARSKYDVPGP
B47: FOXL2 248-263 mut P58012.Y258N (peptide)
chain: LAGPAASYGPNTRVQS
B48: TTN 21091-21106 wt (peptide)
chain: SEPIVARHPFDVPDAP
B49: CACNA1H 1943-1958 wt (peptide)
chain: PHPRPLQEVEMETYGA
B50: SLC22A5 5-20 mut O76082.W14C (peptide)
chain: DEVTAFLGEAGPFQRL
B51: MUTYH 319-334 mut Q9UIF7.S321L (peptide)
chain: SLLGSPDVEEAAPNTG
B52: TTN 15005-15020 wt (peptide)
chain: REKLYPPSPPRWLEVI
B53: SLC22A5 4-19 mut O76082.F17L (peptide)
chain: YDEVTAFLGEWGPLQR
B54: SH2D1A 24-39 mut O60880.D33Y (peptide)
chain: GLDGSYLLRYSESVPG
B55: CFTR 426-441 mut P13569.T438A (peptide)
chain: DSLFFSNFSLLGAPVL
B56: PTCH1 1176-1191 wt (peptide)
chain: SFFGPYPEVSPANGLN
B57: TTN 14109-14124 wt (peptide)
chain: VEARSKYDVPGPPLNV

Some of the results follow. Values come from read counts of a selection and are noisy.

One experiment concerns the target T1, PIK3R1_SH3_1_P27986_6_78.
T1 chain: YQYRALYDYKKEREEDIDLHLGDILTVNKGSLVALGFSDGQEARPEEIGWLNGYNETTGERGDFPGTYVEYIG
In words: mean normalised NGS count of phage-displayed peptide after selection on bait (% of reads); baits are purified protein domains named by gene / domain / UniProt id / residues; peptides come from disordered regions of human proteins; higher = stronger enrichment / binding. The settings on record: replicate selections in which the peptide was seen: 6.
For B1, the “mean normalised NGS count” value was 0.0364.
Same read-out and setting: with B22 the figure was 0.0141; with B52, 0.0513.

Another experiment has as its target PTBP1_RRM_2_P26599_157_285. The experiment is described as above. The note with it: replicate selections in which the peptide was seen: 4.
Take B2: the “mean normalised NGS count” value stood at 0.0119.
Still for that read-out and setting: with B9 the figure was 0.145; with B11, 0.0753; with B21, 0.254.
Regarding B23, the “mean normalised NGS count” value amounted to 0.016.
For B36, the “mean normalised NGS count” value came out at 0.0163.
As to B51, the “mean normalised NGS count” value was 0.0107.

Another experiment deals with PPIA_full-length__P62937_1_165, P62937. Described as above. The settings on record: replicate selections in which the peptide was seen: 6.
Chain of PPIA_full-length__P62937_1_165, P62937 (P62937 whole entry, looked up): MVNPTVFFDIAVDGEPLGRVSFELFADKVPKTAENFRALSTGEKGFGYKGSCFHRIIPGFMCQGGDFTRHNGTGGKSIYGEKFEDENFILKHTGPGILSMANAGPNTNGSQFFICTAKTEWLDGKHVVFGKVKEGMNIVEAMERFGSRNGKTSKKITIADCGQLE
For the molecule B3, the “mean normalised NGS count” value was found to be 0.479.
For the molecule B7, the “mean normalised NGS count” value was 5.4.
The same measure, in the same setting: with B26 the figure was 2.67.
As for B28, the “mean normalised NGS count” value is 4.96.
On to B30, for which the “mean normalised NGS count” value is 35.6.
Take B32: the “mean normalised NGS count” value is 11.7.
Turning to B38, the “mean normalised NGS count” value was determined as 1.
On the same count and under the same terms, for B41 the value was 4.63; for B48, 1.47; for B56, 0.335.
B57: the “mean normalised NGS count” value was determined as 8.88.

Still in this experiment, the particulars now being: replicate selections in which the peptide was seen: 5.
Consider B4, for which the “mean normalised NGS count” value stood at 0.0514.
On to B44, for which the “mean normalised NGS count” value stood at 0.195.
Regarding B53, the “mean normalised NGS count” value came to 0.174.

In the next experiment the target is PTBP1_RRM_2_P26599_157_285. The experiment is described as above. The settings on record: replicate selections in which the peptide was seen: 3.
For B5, the “mean normalised NGS count” value worked out at 0.011.
Take B54: the “mean normalised NGS count” value stood at 3.33.

A further experiment addresses PPIA_full-length__P62937_1_165, P62937. Described as above. The settings on record: replicate selections in which the peptide was seen: 4.
Regarding B6, the “mean normalised NGS count” value turned out to be 0.513.
Regarding B16, the “mean normalised NGS count” value worked out at 0.0479.
Take B33: the “mean normalised NGS count” value amounted to 0.02.
Still for that read-out and setting: with B46 the figure was 0.029.

The target of another experiment is T1, PIK3R1_SH3_1_P27986_6_78. Described as above. The note with it: replicate selections in which the peptide was seen: 7.
Take B8: the “mean normalised NGS count” value was 0.396.
The same measure, in the same setting: with B27 the figure was 0.0425.

A further experiment addresses PPIA_full-length__P62937_1_165, P62937. The description is as above. The settings on record: replicate selections in which the peptide was seen: 2.
B10: the “mean normalised NGS count” value was 0.0159.
In the case of B18, the “mean normalised NGS count” value came to 0.00404.
On to B34, for which the “mean normalised NGS count” value turned out to be 0.00404.
Still for that read-out and setting: for B45 the value was 0.00468.

The target in a further experiment is T2, PEX14_Pex14__O75381_16_84.
T2 chain: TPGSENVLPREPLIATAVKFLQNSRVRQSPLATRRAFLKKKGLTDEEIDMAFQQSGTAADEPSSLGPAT
Described as above. The settings on record: replicate selections in which the peptide was seen: 6.
B12: the “mean normalised NGS count” value came out at 4.14.
For B19, the “mean normalised NGS count” value was 2.98.
On to B24, for which the “mean normalised NGS count” value worked out at 2.8.
On the same count and under the same terms, with B29 the figure was 0.311; with B31, 0.289.

For the next experiment, the target named is PPIA_full-length__P62937_1_165, P62937. Described as above. The settings on record: replicate selections in which the peptide was seen: 3.
As to B13, the “mean normalised NGS count” value was determined as 0.0322.
B15: the “mean normalised NGS count” value turned out to be 0.0108.
With B20, the “mean normalised NGS count” value came out at 0.012.
As to B37, the “mean normalised NGS count” value amounted to 0.00404.
On to B39, for which the “mean normalised NGS count” value is 0.00687.
Turning to B40, the “mean normalised NGS count” value is 0.00807.
Turning to B47, the “mean normalised NGS count” value was 0.179.
As for B49, the “mean normalised NGS count” value worked out at 0.0582.
As to B50, the “mean normalised NGS count” value turned out to be 0.015.

The target of a further experiment is T1, PIK3R1_SH3_1_P27986_6_78. The description is as above. The settings on record: replicate selections in which the peptide was seen: 9.
Consider B14, for which the “mean normalised NGS count” value was 0.131.
For the molecule B43, the “mean normalised NGS count” value came to 23.

A further experiment has as its target PTBP1_RRM_2_P26599_157_285. Described as above. The settings on record: replicate selections in which the peptide was seen: 6.
Take B17: the “mean normalised NGS count” value turned out to be 3.
As to B55, the “mean normalised NGS count” value amounted to 14.7.

The next experiment concerns the target T1, PIK3R1_SH3_1_P27986_6_78. The experiment is described as above. The note with it: replicate selections in which the peptide was seen: 4.
Turning to B25, the “mean normalised NGS count” value came out at 0.0138.

The same experiment, now with this note: replicate selections in which the peptide was seen: 3.
As to B35, the “mean normalised NGS count” value turned out to be 0.0597.

The same experiment, now with this note: replicate selections in which the peptide was seen: 2.
With B42, the “mean normalised NGS count” value is 0.00275.

For the origin of these results see the supplement of paper PMC11369174, “Proteome-scale characterisation of motif-based interactome rewiring by disease mutations” (Molecular Systems Biology, 2024).
